Source: the supplement of paper PMC8728848
This is one part of the list.

Assays:
Assay in all cases: glycan array binding signal (z-score within array); higher = stronger binding
Settings in all cases: glycan notation: IUPAC condensed, linker removed
[1] = molecular target: Gal3S(b1-3)[Fuc(a1-4)]GlcNAc
Method in brief: (§1)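 The Consortium for Functional Glycomics database supplied 3228 glycan arrays, of which those lacking an available protein sequence were dropped. The binding signal, a within-array Z-score, was averaged across arrays of the same protein sequence and across linkers. Negative scores can be read as non-binding.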

[2] = molecular target: Gal3S(b1-4)Glc
Method in brief: as §1

[3] = molecular target: Gal3S(b1-4)Glc6S
Method in brief: as §1

[4] = molecular target: Gal3S(b1-4)GlcNAc
Method in brief: as §1

[5] = molecular target: Gal3S(b1-4)[Fuc(a1-3)]Glc6S
Method in brief: as §1

[6] = molecular target: Gal3S(b1-4)[Fuc(a1-3)]GlcNAc
Method in brief: as §1

[7] = molecular target: Gal3S(b1-4)[Fuc(a1-3)]GlcNAc6S
Method in brief: as §1

[8] = molecular target: Gal3S4S(b1-4)GlcNAc
Method in brief: as §1

[9] = molecular target: Gal3S6S(b1-4)GlcNAc
Method in brief: as §1

[10] = molecular target: Gal3S6S(b1-4)GlcNAc6S
Method in brief: as §1

[11] = molecular target: Gal4S(b1-4)GlcNAc
Method in brief: as §1

[12] = molecular target: Gal4S6S(b1-4)GlcNAc
Method in brief: as §1

[13] = molecular target: Gal6P(b1-4)GlcNAc
Method in brief: as §1

[14] = molecular target: Gal6S(b1-3)GlcNAc
Method in brief: as §1

[15] = molecular target: Gal6S(b1-3)GlcNAc6S
Method in brief: as §1

[16] = molecular target: Gal6S(b1-4)Glc
Method in brief: as §1

[17] = molecular target: Gal6S(b1-4)Glc6S
Method in brief: as §1

[18] = molecular target: Gal6S(b1-4)GlcNAc
Method in brief: as §1

[19] = molecular target: Gal6S(b1-4)GlcNAc6S
Method in brief: as §1

[20] = molecular target: GalNAc(a1-3)Gal
Method in brief: as §1

[21] = molecular target: GalNAc(a1-3)GalNAc
Method in brief: as §1

[22] = molecular target: GalNAc(a1-3)GalNAc(a1-3)Gal(a1-4)Gal(b1-4)GlcNAc
Method in brief: as §1

[23] = molecular target: GalNAc(a1-3)GalNAc(b1-3)Gal(a1-4)Gal(b1-4)Glc
Method in brief: as §1

[24] = molecular target: GalNAc(b1-3)Gal
Method in brief: as §1

[25] = molecular target: GalNAc(b1-3)Gal(a1-4)Gal(b1-4)GlcNAc
Method in brief: as §1

[26] = molecular target: GalNAc(b1-3)Gal(a1-4)Gal(b1-4)GlcNAc(b1-3)Gal(b1-4)Glc
Method in brief: as §1

[27] = molecular target: GalNAc(b1-3)Gal(a1-6)Gal(b1-4)Glc
Method in brief: as §1

[28] = molecular target: GalNAc(b1-3)GalNAc
Method in brief: as §1

[29] = molecular target: GalNAc(b1-3)GlcNAc
Method in brief: as §1

[30] = molecular target: GalNAc(b1-4)Gal(b1-4)Glc
Method in brief: as §1

[31] = molecular target: GalNAc(b1-4)GlcNAc
Method in brief: as §1

[32] = molecular target: GalNAc(b1-4)GlcNAc(b1-2)Man
Method in brief: as §1

[33] = molecular target: GalNAc(b1-4)GlcNAc(b1-2)Man(a1-3)[GalNAc(b1-4)GlcNAc(b1-2)Man(a1-6)]Man(b1-4)GlcNAc(b1-4)GlcNAc
Method in brief: as §1

[34] = molecular target: GalNAc(b1-4)GlcNAc(b1-3)GalNAc(b1-4)GlcNAc
Method in brief: as §1

[35] = molecular target: GalNAc(b1-4)GlcNAc6S
Method in brief: as §1

[36] = molecular target: GalNAc(b1-6)GalNAc
Method in brief: as §1

[37] = molecular target: GalNAc3S(b1-4)GlcNAc
Method in brief: as §1

[38] = molecular target: GalNAc3S(b1-4)GlcNAc3S
Method in brief: as §1

[39] = molecular target: GalNAc3S(b1-4)[Fuc(a1-3)]GlcNAc
Method in brief: as §1

[40] = molecular target: GalNAc4S6S(b1-4)GlcNAc
Method in brief: as §1

[41] = molecular target: GalNAc6S(b1-4)GlcNAc
Method in brief: as §1

[42] = molecular target: Glc(a1-4)Glc
Method in brief: as §1

[43] = molecular target: Glc(a1-4)Glc(a1-4)Glc(a1-4)Glc
Method in brief: as §1

[44] = molecular target: Glc(a1-6)Glc(a1-6)Glc
Method in brief: as §1

[45] = molecular target: Glc(a1-6)Glc(a1-6)Glc(a1-6)Glc
Method in brief: as §1

B1: Threefoil (Haloarcula marismortui) (protein)
chain: GSSHHHHHHHHHHSSGLVPRGSHMGDGYYKLVARHSGKALDVENASTSDGANVIQYSYSGGDNQQWRLVDLGDGYYKLVARHSGKALDVENASTSDGANVIQYSYSGGDNQQWRLVDLGDGYYKLVARHSGKALDVENASTSDGANVIQYSYSGGDNQQWRLVDL
B1 was tested, and the “glycan array binding signal (z-score)” value [1] was -0.175, the “glycan array binding signal (z-score)” value [2] was -0.19 and the “glycan array binding signal (z-score)” value [3] was -0.215. For the same binder, the “glycan array binding signal (z-score)” value [4] was -0.158, the “glycan array binding signal (z-score)” value [5] was 0.052 and the “glycan array binding signal (z-score)” value [6] was -0.002. For the same binder, the “glycan array binding signal (z-score)” value [7] was -0.038, the “glycan array binding signal (z-score)” value [8] was -0.214 and the “glycan array binding signal (z-score)” value [9] was -0.173. For the same binder, the “glycan array binding signal (z-score)” value [10] was -0.221, the “glycan array binding signal (z-score)” value [11] was -0.155 and the “glycan array binding signal (z-score)” value [12] was -0.227. For the same binder, the “glycan array binding signal (z-score)” value [13] was -0.211, the “glycan array binding signal (z-score)” value [14] was -0.211 and the “glycan array binding signal (z-score)” value [15] was -0.298. The “glycan array binding signal (z-score)” value [16] was -0.116, the “glycan array binding signal (z-score)” value [17] was -0.055 and the “glycan array binding signal (z-score)” value [18] was -0.262. For the same binder, the “glycan array binding signal (z-score)” value [19] was -0.194, the “glycan array binding signal (z-score)” value [20] was -0.111 and the “glycan array binding signal (z-score)” value [21] was -0.161. For the same binder, the “glycan array binding signal (z-score)” value [22] was -0.227, the “glycan array binding signal (z-score)” value [23] was -0.187 and the “glycan array binding signal (z-score)” value [24] was -0.265. For the same binder, the “glycan array binding signal (z-score)” value [25] was -0.056, the “glycan array binding signal (z-score)” value [26] was -0.128 and the “glycan array binding signal (z-score)” value [27] was -0.171. The “glycan array binding signal (z-score)” value [28] was -0.128, the “glycan array binding signal (z-score)” value [29] was -0.057 and the “glycan array binding signal (z-score)” value [30] was -0.153. For the same binder, the “glycan array binding signal (z-score)” value [31] was -0.003, the “glycan array binding signal (z-score)” value [32] was -0.238 and the “glycan array binding signal (z-score)” value [33] was -0.172. The “glycan array binding signal (z-score)” value [34] was 0, the “glycan array binding signal (z-score)” value [35] was -0.221 and the “glycan array binding signal (z-score)” value [36] was -0.12. The “glycan array binding signal (z-score)” value [37] was -0.211, the “glycan array binding signal (z-score)” value [38] was -0.334 and the “glycan array binding signal (z-score)” value [39] was -0.193. The “glycan array binding signal (z-score)” value [40] was -0.205, the “glycan array binding signal (z-score)” value [41] was -0.341 and the “glycan array binding signal (z-score)” value [42] was -0.199. The “glycan array binding signal (z-score)” value [43] was -0.221, the “glycan array binding signal (z-score)” value [44] was -0.239 and the “glycan array binding signal (z-score)” value [45] was -0.157.
